Source: PubChem BioAssay AID1963576 (National Center for Advancing Translational Sciences (NCATS), 2024)
Among all 46,000 compounds or so, about 60 (0.1%) were called active. About 3% were inconclusive and are not listed. The call rests on the fitted dose curve; in most records, active means well fitted inhibition curve with a large enough effect; inconclusive means small, poorly fitted or top-dose-only effect; inactive means no such curve, though single readings can be large or run the other way. The list shows a part of the results.

experiment: Primary qHTS assay for Inhibitors of ovarian cancer metastasis using an organotypic tumor microenvironment (TME) model.; further: nearly all actives have a fitted effect of over 65% in size;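 on activity change, negative = inhibition: plate controls were DMSO wells for no effect and tomatine positive control wells for full effect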; conditions: SKOV3ip1-GFP adhesion/invasion on 3D omental model, fluorescence; series mostly up to 45.8 µM; activity change, negative = inhibition: at the top concentration
In short: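 A 3D layer of primary human omental fibroblasts, mesothelial cells, fibronectin and collagen I, grown 48 hr, received SKOV3ip1-GFP cells in serum-free medium plus compounds at 0.36-46 umol/L. After 2 hr RT and 16 hr 37 C, fixed adherent GFP cells were counted; normalized to DMSO and tomatine.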

Activity change, negative = inhibition, inactive:
CCOC(=O)c1ccc(NC(=O)c2cc3c(=O)n(C)c4ccccc4c3n2C)cc1 12.3%
Cn1c(=O)cc(SCC(=O)Nc2cccc(C#N)c2)c2ccc(Cl)cc21 -0.0519%
Cc1ccc(C)c(NC(=O)C(=O)NCCc2csc(-c3cccc(F)c3)n2)c1 -1.82%
CCCCCNC(=O)N1CCC(CN(Cc2ccc(Cl)cc2)Cc2ccc([N+](=O)[O-])s2)C1 (stereo unspecified) 12.1%
Cc1ccc(CN2CCc3nc(N4CCN(C)CC4)ncc3C2)cc1 -7.2%
COc1ccc(C(=O)N2CCC(c3ccncc3)CC2)cc1OC -4.66%
COc1ccc(N2CCN(C(=O)Cc3noc4ccc(C)cc34)CC2)cc1 -2.2%
COC(=O)c1ccc(OC)c(CN2CCCN(Cc3ccc(C)cc3)S2(=O)=O)c1 7.73%
COc1cc2c(cc1OC)C(COc1ccc3c(C)cc(=O)oc3c1)N(C(=O)c1ccc(C)c(C)c1)CC2 (stereo unspecified) -1.78%
Cc1ccc(C)c(N2CCN(C(=O)c3ccc4c(c3)c(C)c(C)n4C)CC2)c1 28.1%
CCOc1ccccc1C1CC(=O)NC(C)=C1C(=O)OCc1ccc(C)cc1 (stereo unspecified) 8.13%
COc1ccc(Nc2nnc(-c3ccc(C)c(S(=O)(=O)N4CCN(C)CC4)c3)c3ccccc23)cc1 -4.29%
Cc1nc2sccn2c(=O)c1S(=O)(=O)NCc1ccccc1 -13.8%
COc1ccc(Cl)cc1C(=O)NCC(c1ccc(N(C)C)cc1)N1CCOCC1 (stereo unspecified) 19%
Cc1oc2c(c1C(=O)Nc1ccc(Cl)cc1F)C1=NCCN1C=N2 95.1%
CC1CCCN(c2csc3ccccc3c2=O)C1 (stereo unspecified) 3.02%
CC(C)c1nn2c(=O)cc(COC(=O)c3ccccc3NC(=O)c3cccs3)nc2s1 -6.78%
O=C(N[C@H](CO)[C@H](O)c1ccc([N+](=O)[O-])cc1)C(Cl)Cl -8.26%
CCOc1ccc(N(Cc2cc3cc(C)ccc3[nH]c2=O)C(=O)c2cccc(Cl)c2)cc1 3.49%
CCn1c2ccccc2c2nnc(N3CCN(c4cccc(C)c4C)CC3)nc21 -8.75%
O=C(NCCCN1CCOCC1)c1ccc2c(c1)N(Cc1ccccc1)C(=O)c1ccccc1S2 15.4%
Cc1ccc(C)c(CN2CCC(CNC(=O)Cn3ncc4c([nH]c5ccccc54)c3=O)CC2)c1 -0.0371%
Cc1ccc(-n2ncc3c(NCCc4ccccc4)ncnc32)cc1C -0.887%
Cc1cccc(OCCCCn2nnc3sc4c(c3c2=O)CCC(C)C4)c1 (stereo unspecified) -3.18%
O=C(Cn1nc(N2CCN(c3ccccc3)CC2)ccc1=O)NCc1cccc(Cl)c1 -1.5%
CCOc1ccc(NC(=O)NC(C)c2c(-n3cccc3)sc(C)c2C)cc1 (stereo unspecified) 1.22%
COc1ccc(-n2c(/C=C/c3cc(OC)c(OC)cc3OC)nc3cc4ccccc4cc3c2=O)cc1Cl -23.3%
O=C(COc1ccccc1)Nc1ccc(C(=O)OCc2cc(=O)n3nc(C4CC4)sc3n2)cc1 19.7%
CCOC(=O)c1cc(-c2ccc(F)cc2)n(CC(=O)NC2CCCCC2)c1C 2.98%
O=C(CN1CCCN(Cc2ccccc2Cl)S1(=O)=O)Nc1ccc2c(c1)OCCO2 -7.9%
Cc1cc(C)n2c(Nc3c(C)cccc3C)c(-c3ccsc3)nc2n1 4.61%
COc1ccc(-c2c(C)nn3c(C(F)(F)F)cc(-c4ccc(Br)cc4)nc23)cc1 4.94%
CCc1cccc(C)c1NC(=O)CN1CCCN(Cc2ccc(C)cc2)S1(=O)=O -17.7%
O=C(Cc1cccs1)NC1CC(=O)N(c2ccccc2)C1 (stereo unspecified) -1.35%
CCOc1ccc(CCNC(=O)c2ccc(CS(=O)(=O)Cc3ccccc3Cl)o2)cc1OCC -6.5%
CNC1[C@H](O)C(O[C@@H]2C(O)C(O[C@H]3O[C@H]([C@@H](C)NC)CC[C@H]3N)[C@@H](N)C[C@H]2N)OC[C@]1(C)O (stereo partly specified) 6.39%
CCOc1ccc(-c2ccc(NS(=O)(=O)c3cc(C)c(C)cc3C)cc2)nn1 7.86%
O=C(c1cc2c(=O)[nH]c3ccccc3c2s1)N1CCN(c2ccc(F)cc2)CC1 3.66%
CC(NC(=O)CCn1c(=O)c2cccn2c2ccc(F)cc21)c1ccccc1 (stereo unspecified) -1.85%
CCOc1ccc(C(=O)Nc2ccc(-c3nc4cc(CC)ccc4o3)cc2)cc1 1.38%
CCCOc1ccc(Nc2nc(SC)ncc2C(=O)OCC)cc1 -13.8%
COC(=O)c1ccc(NC(=O)Nc2nnc(N(C)C3CCCCC3)s2)cc1 -3.62%
O=C(CCn1c(=O)c2cccn2c2ccc(F)cc21)NCCc1ccccc1Cl 4.24%
COc1cccc2c1Oc1nc(-c3ccccc3)nc(SCC(=O)N3CCCCC3)c1C2 2.89%
COc1ccc(CN2COc3ccc4c(C)cc(=O)oc4c3C2)cc1 -9.46%
COc1cccc(NC(=O)c2oc3ccccc3c2NC(=O)C23CC4CC(CC(C4)C2)C3)c1 15.1%
COc1ccccc1NC(=O)Cn1c(=O)n(Cc2ccccc2)c(=O)c2ccccc21 3.22%
COc1ccc(-c2nc3nc(C)cc(Nc4ccc(C(C)=O)cc4)n3n2)cc1 48.4%
COC(=O)c1ccc(NC(=O)Cc2coc3cc(C)ccc23)cc1 1.83%
Cc1cc(C)cc(-n2c(SCC(=O)Nc3nnc(C)s3)nc3c([nH]c4ccccc43)c2=O)c1 14%
Cc1coc2c(C)c3oc(=O)c(CC(=O)N4CCCCC4)c(C)c3cc12 -2.92%
NC(=O)c1cccc(-c2cc(Nc3ccc(OC(F)(F)F)cc3)ncn2)c1 -11.3%
Cc1nc2nc(NC(=O)c3cccc(Cl)c3)[nH]n2c(=O)c1Cc1ccccc1 -0.731%
CCC(C(=O)N1CCN(c2cccc(C)c2C)CC1)n1nc(C)c2sc3ccccc3c2c1=O (stereo unspecified) 2.28%
CCCNC(=O)C1CCC(Cn2c(=O)c3sccc3n(Cc3cccc(OC)c3)c2=O)CC1 (stereo unspecified) -12.2%
COc1ccc(-n2nc(C(=O)N(C)c3cccc(C(F)(F)F)c3)c3c4ccccc4n(C)c3c2=O)cc1 -7.96%
COc1cccc(CNC(=O)CCn2c(=O)c3cccn3c3ccc(F)cc32)c1OC 2.84%
CCCCOc1ccc(CNC(=O)CN2CCSc3ccccc32)cc1 7.13%
O=S(=O)(c1ccc(Br)cc1)c1nc(-c2ccco2)oc1SCc1ccccc1Cl -4.12%
COc1ccc(CCNC(=O)Cn2cc(C(=O)c3ccccc3)c(=O)c3ccc(C)nc32)cc1OC -2.84%
CCOC(=O)c1c(S(=O)(=O)N2CCC(C(=O)Nc3ccccc3OC)CC2)c(C)n(CC)c1C 0.146%
COc1ccc(CCNC(=O)CCc2c(C)nc3c(c(C)nn3-c3ccc(C)c(C)c3)c2C)c(OC)c1OC -2.24%
CCOC(=O)C1CCC(CN(Cc2ccccc2)S(=O)(=O)c2ccc(Cl)cc2)CC1 (stereo unspecified) -8.03%
CCOc1ccc(-n2c(-c3ccc(C)cc3)nc3c(cnn3-c3ccccc3)c2=O)cc1 4.92%
Cc1c(Cl)cccc1NS(=O)(=O)c1ccc2[nH]cc(C(=O)NC3CCCC3)c(=O)c2c1 7.56%
CN1C(=O)CC(=O)N(C)c2cc(S(=O)(=O)N(C)Cc3ccccc3)ccc21 4.29%
Cc1ccccc1C(=O)Nc1ccccc1C(=O)OCc1cc(=O)n2ccsc2n1 1.73%
Cc1cc(C)c(Cn2c3ccccc3c3cnn(CC(=O)N4CCCCC4)c(=O)c32)c(C)c1 0.697%
COc1cccc(N2CC(NC(=O)Cc3cccs3)CC2=O)c1 (stereo unspecified) -1.43%
Cc1ccc2c(c1)c1c(c(=O)n(-c3ccccc3)c(=O)n1CC(=O)N1CCCC1)n2C -2.49%
Cc1ccc(-n2ncc(C(=O)NCCN3CCN(C)CC3)c2C2CCN(C(=O)OC(C)(C)C)CC2)c(C)c1 -20%
CC(=O)c1cccc(NS(=O)(=O)c2ccc3[nH]c4c(c3c2)CCCCCC4)c1 3.33%
COc1ccc2c(c1)c1c(c(=O)n(-c3ccc(OC)c(OC)c3)c(=O)n1Cc1ccccc1C)n2C -2.39%
Cc1ccc(S(=O)(=O)c2nc(-c3cccs3)oc2N2CCCCC2)cc1 -3.01%

outcome, inactive:
COc1ccc(CCNC(=O)c2cc(-c3ccc(Cl)cc3)on2)cc1OC
COc1cccc(NC(=O)CCc2nc(-c3cc(OC)c(OC)c(OC)c3)no2)c1
CCc1ccc(NC(=O)Cn2ccn(-c3cccc(Cl)c3)c(=O)c2=O)cc1
Cc1cccc(C)c1OCC(=O)N(Cc1ccc(Cl)cc1)CC1CCCO1 (stereo unspecified)
CCCN(Cc1cccs1)C(=O)Nc1ccccc1C
Cn1c(=O)c2c(nc(NCCc3ccccc3)n2Cc2ccc(Cl)c(Cl)c2)n(C)c1=O
CCOC(=O)C1CCN(CCC(=O)Nc2ccccc2Cl)CC1
COc1ccc(S(=O)(=O)NCCc2cn3ccsc3n2)cc1OC
CCOC(=O)CSc1nc2sc3c(c2c(=O)n1Cc1ccccc1)CC(C)CC3 (stereo unspecified)
CCOc1ccccc1CNC(=O)CN1C(=O)CCCc2ccccc21
Cc1ccc(OCCSc2nc3ccc(NC(=O)COc4ccc(F)cc4)cc3s2)cc1
CCN(CC)CCNC(=O)C1CCN(S(=O)(=O)c2c(C)noc2/C=C/c2ccccc2F)CC1
Cc1nc2nc(SCC(=O)NCc3ccccc3)nn2c(C)c1Cc1ccccc1Cl
CCN(C(=O)COc1cc(=O)n(C)c2ccccc12)c1cccc(C(F)(F)F)c1
Cc1ccccc1CN1CCc2nc(Nc3ccc4c(c3)OCCO4)ncc2C1
COc1ccc(NC(=O)C(=O)NCCc2csc(-c3ccc(Cl)cc3)n2)cc1
CCn1nnc2cc(C(=O)Nc3cccc(Cl)c3)ccc21
Cc1ccc(CCNC(=O)c2nn(C)c3c2CSc2ccccc2-3)cc1
Cc1ccc(NC(=O)CCn2c(=O)c3cccn3c3ccccc32)c(Cl)c1
CCCCN(CCCC)CCNC(=O)c1cn(C)c2ccc(S(=O)(=O)N3CCOCC3)cc2c1=O
CCn1cc(C(=O)NCCc2ccc(C)cc2)c(=O)c2cc(S(=O)(=O)N(C)C)ccc21
CCOc1ccc(OCC)c(Nc2nc3ccccc3c3nnc(C)n23)c1
